The values that follow come from article PMC6212790.

The other results are listed elsewhere or left out. At the low end of the ranking the order means little.

This assay has as its target T1, GST-Rok-C97-191 (UniProt O34857).
T1 sequence: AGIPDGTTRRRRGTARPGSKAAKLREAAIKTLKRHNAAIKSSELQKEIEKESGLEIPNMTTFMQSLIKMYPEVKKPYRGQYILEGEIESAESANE
In words: protein binding microarray.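 Also: rank score from −0.5 (least bound) to 0.5 (best bound).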 As to conditions: Rok is a gene silencer of Bacillus subtilis; high values mean tight binding; most listed sequences are background and not binding sites; double strand, one strand shown.
ACTCTCAA registered a binding signal of -0.0398 E-score.
To ACAGAAAC belongs 0.121 E-score; to CGCAGAAG, -0.171 E-score.
GCATGCAC: the binding signal is -0.209 E-score.
The figure for ATTTCGAA is 0.0379 E-score; for GTACTCTA it is 0.205 E-score.
To CACACCGC belongs 0.152 E-score; to CAGGCGTC, -0.146 E-score.
The figure for ACCACCTA is 0.0261 E-score; for CCCAGTCA it is -0.198 E-score.
As for AACAAACG, the binding signal is -0.0605 E-score.
The sequence CCGCACAG gave a binding signal of -0.277 E-score.
The sequence CCGGCTGA displayed a binding signal of -0.0819 E-score.
In the case of ATAGGTGA, the binding signal is -0.0624 E-score.
The figure for AGCAGTCG is -0.179 E-score; for AGTTCAAG it is 0.0194 E-score.
The figure for GCAGCTCC is -0.115 E-score; for CGAGGGAA it is -0.0959 E-score.
To CATACGCA belongs 0.0592 E-score; to AGGGCACT, -0.0365 E-score; to AGTCTACA, 0.0463 E-score.
In turn, ACGCCAGA displayed a binding signal of -0.13 E-score.
To GTGCTCGA belongs -0.0814 E-score; to ATTAGCAG, 0.0537 E-score.
The figure for TAGTTTGA is 0.31 E-score.
The figure for GGAAATCC is -0.344 E-score.
Turning to AAACTCAC, the binding signal amounted to 0.074 E-score.
To AATGACAT belongs 0.115 E-score.
To GATGCAAA belongs -0.0546 E-score; to GTATGCCA, 0.096 E-score; to CGTTGTAA, 0.104 E-score.
The figure for CTCAACGC is 0.0818 E-score; for GCTGGTCC it is -0.187 E-score.
In the case of AAGAGAAA, the binding signal is 0.121 E-score.
Consider ACGGTTGG, for which the binding signal was -0.0902 E-score.
AAATCCTT displayed a binding signal of -0.0125 E-score.
To AGAGTGAA belongs -0.0588 E-score.
To AAGAACTC belongs 0.0626 E-score; to CGATTAAG, 0.00538 E-score.
The figure for GGTAGTAA is 0.396 E-score; for CATCTAAC it is 0.0116 E-score; for GGATTACC it is -0.136 E-score.
In turn, CAACTCGA displayed a binding signal of 0.0565 E-score.
The figure for AATCGCAC is -0.0861 E-score.
To TCTATACA belongs 0.155 E-score; to AGAGCTGC, -0.0455 E-score; to CTAGCTAC, 0.163 E-score.
To AGGTACAT belongs 0.184 E-score; to GGACAGAC, -0.0976 E-score.
Turning to CCATCACG, the binding signal is -0.26 E-score.
The figure for ACAGCATG is 0.0808 E-score; for AAAGTGAG it is 0.0398 E-score; for GTCCGCAC it is -0.0626 E-score.
On to CAGTTCAG, for which the binding signal was -0.167 E-score.
To GACCACTA belongs 0.0394 E-score.
To TCAAAAAA belongs -0.0915 E-score; to CCAGGTGA, -0.032 E-score; to CGTTATAA, 0.176 E-score.
Turning to TCCGCCAA, the binding signal is -0.23 E-score.
The figure for GATTTGAA is 0.0956 E-score.
The figure for GAGCTACC is -0.142 E-score.
The figure for TGGAACAA is 0.0826 E-score.
On to CACTGTCC, for which the binding signal is 0.0415 E-score.
To ATTTTGCG belongs 0.0669 E-score.
To ACGCTCCT belongs -0.0443 E-score.
The figure for CCGTTCCA is 0.0402 E-score; for CTGATCAA it is -0.0448 E-score.
Turning to ACATCAGA, the binding signal is -0.0562 E-score.
In turn, ACCTTAAG displayed a binding signal of 0.0939 E-score.
AGGGTTTG: the binding signal is -0.0397 E-score.
The figure for CTAGGTCA is -0.0732 E-score; for TACGACCA it is 0.0695 E-score; for CCTAGTTC it is 0.0163 E-score.
To AGTTTACA belongs 0.155 E-score; to AAAGAGAA, 0.00506 E-score.
The figure for AACAGTGT is 0.232 E-score; for ACCACCTC it is 0.0137 E-score.
As to GGACATCC, the binding signal is -0.169 E-score.
The figure for CTATGATA is 0.209 E-score; for AGATAAGC it is 0.238 E-score.
On to GCCTCAAA, for which the binding signal is -0.134 E-score.
To GTATTATA belongs 0.388 E-score; to ACAATCGC, 0.0137 E-score.
To AGCGCACG belongs -0.161 E-score; to AAAGGACC, -0.323 E-score; to CAAAGCCC, -0.186 E-score.
ACCGAGGT had a binding signal of -0.137 E-score.
The figure for AGGAACAC is -0.177 E-score; for CCTTCTTA it is 0.0486 E-score.
In turn, GCCTTGCA showed a binding signal of -0.175 E-score.
The figure for CCAGGCAG is -0.281 E-score.
The figure for CAAGGCCG is -0.175 E-score; for GCAGAATA it is 0.015 E-score; for ACCTAACA it is -0.0427 E-score.
The figure for CACACTGA is -0.208 E-score.
In turn, ACATTGGG yielded a binding signal of 0.0736 E-score.
To TGATCACA belongs -0.0398 E-score.
The figure for ACTTGTGG is -0.109 E-score; for ATTGGCCC it is -0.217 E-score; for AGGTTCCG it is -0.0655 E-score.
To ACTCAGAC belongs -0.0417 E-score; to GTAGACGA, 0.033 E-score; to ACTACACG, 0.186 E-score.
With AGGCATGA, the binding signal is -0.117 E-score.
The figure for GAATGTAA is 0.173 E-score; for CTGAACGC it is -0.149 E-score.
To AAACTCAG belongs 0.0837 E-score; to CTAAACAA, -0.137 E-score.
To CATCGACA belongs 0.122 E-score.
Sequence AGGGTGAG came in with a binding signal of -0.238 E-score.
To CTGCACTC belongs -0.137 E-score; to CACGGCAA, 0.0436 E-score; to CTACGGAA, 0.183 E-score.
To CAAGGTCC belongs -0.223 E-score; to CCTTGGCA, -0.346 E-score; to TAATTTCA, 0.318 E-score.
AATAGGCG gave a binding signal of -0.135 E-score.
To AGCGATTC belongs -0.0588 E-score; to AAGTTCGC, 0.0383 E-score; to GCAAGTGA, 0.0852 E-score.
Consider CTGTTCCC, for which the binding signal was -0.222 E-score.
The figure for CTAGACAC is 0.00927 E-score.
To CTAAACTA belongs 0.386 E-score.
The figure for ACTGAGGG is -0.132 E-score; for AGTTTCAA it is 0.104 E-score.
As to GAAACGCC, the binding signal is -0.103 E-score.
The sequence ATATTTAA showed a binding signal of 0.338 E-score.
The figure for AAAAAACA is 0.19 E-score.
AAAGATGT displayed a binding signal of -0.0898 E-score.
GTATGAAA came in with a binding signal of 0.0513 E-score.
To CCATAGGC belongs -0.199 E-score.
The figure for CACCATTA is 0.0781 E-score; for AACCTATG it is -0.0266 E-score; for CCGGACAA it is -0.145 E-score.
The figure for GAGCACAA is -0.0601 E-score; for GCTAACAC it is -0.0971 E-score; for AATTAACG it is 0.167 E-score.
AAGTCTGA came in with a binding signal of -0.046 E-score.
The figure for AGATGGGG is -0.112 E-score; for GACCTCCC it is -0.206 E-score; for CAGCGGTC it is -0.314 E-score.
In turn, ATGGTGAA gave a binding signal of 0.0706 E-score.
To CGAATTCC belongs -0.0979 E-score; to ATTCCCAA, 0.0599 E-score; to AGGGGCAA, -0.224 E-score.
To GAGAGGCC belongs -0.269 E-score.
The figure for CGGAGGAC is -0.262 E-score; for CAGCGCAA it is 0.0298 E-score.
In turn, GTCTGCTA displayed a binding signal of -0.00452 E-score.
To AGGTGTTC belongs -0.0999 E-score; to CCGCCGTA, -0.127 E-score; to CGTGGGAG, -0.259 E-score.
The figure for GTGCAAAC is -0.0469 E-score; for CAAGACAC it is -0.287 E-score.
To CCTATACG belongs -0.0365 E-score; to TATGCCGA, -0.0394 E-score; to CATGAGTA, 0.155 E-score.
CGTTATCC gave a binding signal of -0.0591 E-score.
The figure for GATCTCAC is -0.0111 E-score; for TGGGGTAA it is 0.0549 E-score; for ATGAGCGA it is -0.156 E-score.
To CATGCGCC belongs -0.338 E-score; to AGTACCGG, 0.129 E-score.
The figure for ATCATCTC is -0.184 E-score; for AAAATCGG it is -0.095 E-score.
The sequence CTATGTGA displayed a binding signal of 0.125 E-score.
To CAGCCAGC belongs -0.201 E-score; to CCCTCGAG, -0.186 E-score.
The figure for CGCGTAAG is -0.117 E-score; for CATTGTCC it is -0.279 E-score.
The figure for GCTCCTTA is -0.0834 E-score; for CGTAGGCC it is -0.0817 E-score.
